Data reported in PubChem BioAssay AID1745853 (National Center for Advancing Translational Sciences (NCATS), 2022).
Values joined by “and” are separate entries in the source; they are usually repeats but may differ in a detail not shown here. Equal values may be shown once. This is one part of the list. These are further read-outs of the screen, such as a control signal, another cell line or another target. No call is given for them.

How the values were obtained:
Assay in all cases: Primary Screen for Target Class Profiling of Small Molecule Inhibitors of Methyltransferases
[1] = target: Glycine N-methyltransferase (Homo sapiens) (UniProt Q14749); settings: purified enzyme, MTase-Glo SAH luminescence; measured here: GNMT inhibition; at 40 µM; stronger effect = lower value
Text: (§1) PI: Matthew D. Hall Ph.D. and Quinlin M. Hanson Ph.D.
(§2) National Center for Advancing Translational Sciences (NCATS)
(§3) National Institute of Health (NIH), Rockville, MD
(§4) Target class profiling (TCP) is a chemical biology approach amenable to investigating understudied biological targets. TCP is achieved by developing a generalizable assay platform and applying it to screen a curated set of compound libraries against representative members of a target class. Small molecule methyltransferases (SMMTase) are a subclass of methyltransferase that act on metabolites to modulate signaling pathways, metabolize xenobiotics, or balance the available methyl pool. We screened four curated libraries totaling 27,574 unique compounds against the SMMTases nicotinamide N-methyltransferase (NNMT), phenylethanolamine N-methyltransferase (PNMT), histamine N-methyltransferase (HNMT), glycine N-methyltransferase (GNMT), catechol O-methyltransferase (COMT), and guanidinoacetate N-methyltransferase (GAMT). The data generated by this TCP can be leveraged for informed tool molecule development. For example, in the associated publication we identified a chemotype of HNMT-selective inhibitors. Additionally, we identified a putative SMMTase-selective inhibitor with potential as a tool molecule for studying broader methyltransferase biology.
(§5) High-through put screening assays were developed at the National Center for Advancing Translational Science (NCATS) for the enzymes NNMT, PNMT, HNMT, GNMT, COMT, and GAMT. Enzymatic activity was measured as a function of SAM cofactor conversion using the MTase Glo kit (Promega) for all enzymes. All assays were performed in 1536-well format with substrates and SAM concentrations at KM values. Enzyme concentration and assay timing were optimized for 10-20% SAM conversion. Initial screening of 27,574 compounds was done as single-point assays using the highest compound concentration (40 uM). […] These compounds were replated in 11-point dose response and assayed against NNMT, PNMT, HNMT, GNMT, COMT, GAMT, and a counter-assay. The IC50 and efficacy (maximal response) values were determined for each dose-response curve. These values are also accounted for in the area under the curve (AUC) values.
(§6) PROTOCOL TABLE (as described by Inglese J, Shamu CE and Guy RK. 2007)
(§7) SEQUENCE No. (e.g., 1, 2, 3, etc.); […] (e.g., Cells, Incubation, Reagent, etc.); VALUE; DESCRIPTION.
(§8) 1; Reagent; 2 uL; SMMTase Enzyme (2x) in reaction buffer, columns 1- 48.
(§9) 2; Reagent; 1 uL; SAM (4x) in reaction buffer, columns 1-48.
(§10) 3; Controls; 23 nL; DMSO in column 4; sinefungin in DMSO (0 uM - 40 uM) in 7-point 1:2 dilution series (n = 2) in column 2.
(§11) 4; Compounds; 23 nL; Columns 5-48.
(§12) 5; Reagent; 1 uL; Substrate (4x) in reaction buffer, columns 2-48.
(§13) 6; Time; 20-30 min; Incubation.
(§14) 7; Reagent; 1 uL; MTase-Glo reagent (5X), columns 1-48.
(§15) 8; Time; 30 min; Incubation.
(§16) 9; Reagent; 5 uL; MTase-Glo Detection reagent, columns 1-48.
(§17) 10; Time; 30 min; Incubation, luminescence evolution.
(§18) 11; Detection; Luminescence; ViewLux uHTS Microplate Imager (PerkinElmer).
(§19) NOTES (numbers refer to Sequence numbers above)
(§20) 1, 2, 5. White Medium Binding Greiner 1536-well plates (Cat #789175-F, Greiner Bio-One, Monroe, NC); Reaction buffer: 50 mM Tris, pH 8.0, 3 mM MgCl2, 1 mM EDTA, 50 mM NaCl, 1 mM DTT, and 0.1 mg/mL BSA. Evaporation was prevented by covering assay plates with metal lids containing holes to allow gas diffusion.
(§21) 1. Six SMMTase were profiled: HNMT, GNMT, PNMT, COMT, NNMT, GAMT
(§22) 5. The corresponding substrate was used for each enzyme: HNMT - 5.3 uM Histamine; GNMT - >500 uM Glycine; PNMT - 16.2 uM Norephinephrine; COMT - 13.7 uM Norephinephrine; NNMT - 3.8 uM Nicotinamide; GAMT - 2.5 uM Guanidinoacetate.6, 8, 10. Room temperature
(§23) 6. Final reaction conditions: 10 nM COMT, 5 uM SAM, 15 uM norepinephrine, 50 mM Tris, pH 8.0, 3 mM MgCl2, 1 mM EDTA, 50 mM NaCl, 1 mM DTT, and 0.1 mg/mL BSA; refer to tables 2 and S1 for specific timing.
8. […]

[2] = target: Guanidinoacetate N-methyltransferase (Homo sapiens) (UniProt Q14353); settings: purified enzyme, MTase-Glo SAH luminescence; measured here: GAMT inhibition; at 40 µM; stronger effect = lower value
Text: as §1, §2, §3, §4, §5, §6, §7, §8, §9, §10, §11, §12, §13, §14, §15, §16, §17, §18, §19, §20, §21, §22, §23
8. […]

[3] = target: Histamine N-methyltransferase (Homo sapiens) (UniProt P50135); settings: purified enzyme, MTase-Glo SAH luminescence; measured here: HNMT inhibition; at 40 µM; stronger effect = lower value
Text: as §1, §2, §3, §4, §5, §6, §7, §8, §9, §10, §11, §12, §13, §14, §15, §16, §17, §18, §19, §20, §21, §22, §23
8. […]

[4] = target: Nicotinamide N-methyltransferase (Homo sapiens) (UniProt P40261); settings: purified enzyme, MTase-Glo SAH luminescence; measured here: NNMT inhibition; at 40 µM; stronger effect = lower value
Text: as §1, §2, §3, §4, §5, §6, §7, §8, §9, §10, §11, §12, §13, §14, §15, §16, §17, §18, §19, §20, §21, §22, §23
8. […]

[5] = target: Phenylethanolamine N-methyltransferase (Homo sapiens) (UniProt P11086); settings: purified enzyme, MTase-Glo SAH luminescence; measured here: PNMT inhibition; at 40 µM; stronger effect = lower value
Text: as §1, §2, §3, §4, §5, §6, §7, §8, §9, §10, §11, §12, §13, §14, §15, §16, §17, §18, §19, §20, §21, §22, §23
8. […]
% is scaled to controls: 0 for no effect and ±100 for the full control effect.

Row | SMILES | activity change, negative = inhibition [1] | activity change, negative = inhibition [2] [%] | activity change, negative = inhibition [3] | activity change, negative = inhibition [4] | activity change, negative = inhibition [5]
1 | CCCn1c(=O)c2cc(Cl)ccc2n2c(SCc3cccc(F)c3)nnc12 | -19.2% | 3.97 | 0.771% | -11.1% | 0.556%
2 | CC(C)c1noc(Cn2nc(-c3ccccc3)c3ccccc3c2=O)n1 | -1.87% | -1.65 | 0.418% | -1.27% | -1.23%
3 | CN(CCN1CCCCCC1)C(=O)c1cc(COc2ccccc2)[nH]n1 | -5.34% | -1.95 | -18.8% | -8.32% | 6.91%
4 | O=C(O)c1ccc(NC(=O)[C@H](CC2CCCC2)n2cnc(C(F)(F)F)c2)nc1 | 2.93% | 1.02 | 9.32% | -14.5% | 7.19%
5 | O=C(c1ccc2c(=O)nc3c(-c4ccc(Cl)cc4)n[nH]n3c2c1)N1CCN(Cc2ccccc2)CC1 | -30.3% | 1.91 | -1.06% | 0.081% | -0.546%
6 | COc1ccc(CNC(=O)[C@@H]2CCC[C@@H](NCc3cccnc3)CN(C)C(=O)C2)cc1 | -3.67% | -6.84 | -1.38% | -9.33% | -5.61%
7 | Cc1cccc(C2c3cccn3-c3sc4c(c3CN2C(=O)Nc2ccccc2F)CCCC4)c1 (stereo not drawn) | -4.41% | 3.23 | -6.21% | -1.57% | -0.198%
8 | COc1ccc(S(=O)(=O)c2nnn3c2nc(Nc2cccc(C)c2)c2ccccc23)cc1 | -1.67% | 5.38 | 3.71% | 3.02% | -3.84%
9 | O[C@@H]1[C@@H](Cn2cc(C3CC3)nn2)C[C@@H](NCc2nccs2)[C@@H]1O | -2.02% | 0.092 | 0.419% | 3.51% | -3.31%
10 | COc1ccc(CN2C(=O)c3ccc(-c4ccco4)n3CC2(C)C(=O)NC2CCCCC2)cc1OC (stereo not drawn) | -5.77% | 2.38 | -0.764% | -8.77% | -1.44%
11 | COCC1CN(C)CC12CCN(C(=O)Cc1ccc(OC)c(Cl)c1)CC2 (stereo not drawn) | -7.17% | -4.92 | -26.7% | -6.51% | 0.257%
12 | CCC(C)NC(=O)c1ccc2c(=O)n(C)c3nnc(SCc4ccccc4Cl)n3c2c1 (stereo not drawn) | 5.33% | 0.334 | 9.19% | 4.46% | 5.25%
13 | COCCNC(=O)c1ccc2c(=O)nc3c(-c4ccccc4)n[nH]n3c2c1 | 4.09% | 3.94 | 4.22% | 7.13% | 3.09%
14 | O=C(Cn1nc2n(Cc3ccccc3)c(=O)c3ccccc3n2c1=O)c1cccc(Cl)c1 | 0.929% | 7.56 | -0.903% | -10% | 2.18%
15 | C=C1[C@H]2CC[C@]3(O)[C@@](CC[C@@H]4[C@](C)(C(=O)O)CCC[C@]43C)(C2)[C@H]1OC(=O)/C(C)=C\C | 1.19% | -1.8 | 8.78% | -14.1% | 4.61%
16 | CN(C)CC(C)(C)CNc1nn2c(-c3ccccc3)nnc2cc1C1CCC1 | 4.22% | 7.51 | 11.5% | -6.42% | 4.08%
17 | COCCN1CCOC[C@H]2CCN(C(=O)c3cnccn3)C[C@H]21 | -2.76% | -10.8 | -2.21% | -6.44% | -4.99%
18 | CCOC(=O)c1cc2ccc(O)cc2oc1=O | – | -1.93 | – | -21.5% | -13.3%
19 | COc1cccc([S+](=O)([O-])N2CCC3(C2)N=C(c2cccnc2)C(=O)N3)c1 (stereo not drawn) | -6.47% | -8.77 | -3.13% | -10.1% | -61.5%
20 | CC(N)=NCCCC[C@@H](N)C(=O)O | 2.45% | 9.28 | 6.41% | -5.33% | 1.39%
21 | CC(C)N(CCCNC(=O)Nc1ccc(C(C)(C)C)cc1)C[C@H]1O[C@@H](n2ccc3c(N)ncnc32)[C@H](O)[C@@H]1O | -53.9% and -12.1% | -20.7 | -72.2% and -47.7% | -35.6% and -46.2% | -31.6% and -39.3%
22 | Cc1ccc(C(=O)CSc2nnc3n(C)c(=O)c4ccc(C(=O)NC5CCCC5)cc4n23)cc1 | -1.6% | -2.74 | 3.56% | -3.11% | -4.67%
23 | CCCn1c(=O)c2ccc(C(=O)NCC(C)C)cc2n2c(=O)n(CC(=O)Nc3ccccc3F)nc12 | 4.69% | 0 | 6.93% | -2.67% | 5.14%
24 | CCOc1ccc(CNC(=O)c2cc3n(n2)CC(C)(C(=O)NCc2ccc(C)cc2)N(C)C3=O)cc1OC (stereo not drawn) | 3.64% | 7.49 | 0.042% | 0.369% | 0.724%
25 | CC1(C(=O)NC2CCCCCCC2)Cn2c(cc3occc32)C(=O)N1CCN1CCCCCC1 (stereo not drawn) | 2.58% | 0 | -14.4% | -7.05% | -5.01%
26 | C/C=C(\C)C(=O)OC[C@H]1O[C@H](O[C@H]2O[C@H](CO)[C@@H](O)[C@H](O)[C@H]2O[C@@H]2O[C@H](CO)[C@@H](O)[C@H](O)[C@H]2O)[C@H](O[C@@H]2O[C@H](CO)[C@@H](O)[C@H](O)[C@H]2O)[C@@H](O)[C@@H]1O | 0% | 9.18 | 11.7% | -2.6% | 7.84%
27 | CC(C)c1ccc(NC(=O)Cn2c(=O)oc3cc(S(=O)(=O)N4CCCCC4)ccc32)cc1 | -1.78% | 0 | 7.78% | 7.11% | -3.6%
28 | CCN1CC(c2nc(-c3ccc4nc[nH]c4c3)no2)CCC1=O (stereo not drawn) | -2.75% | -0.652 | -1.76% | -6.99% | -1.27%
29 | Cc1cnc(-c2cccnc2)n1C1CCCN(CC2CCCCC2)C1 (stereo not drawn) | -5.42% | -3.91 | -5.37% | -7.1% | -17.7%
30 | CCn1cc(CN(C)C(=O)CN2C(=O)C(Oc3ccc(F)cc3)C23CCCCC3)c(C)n1 (stereo not drawn) | -5.11% | -22 | -4.95% | -21% | -6.99%
